# Results as given in PMC7819943, “Rice protein-binding microarrays: a tool to detect cis-acting elements near promoter regions in rice”.
# This is one part of the list.
# Biological target: T1, OsWOX13 (Oryza sativa, UniProt Q5QMM3 1-267)
# T1 sequence: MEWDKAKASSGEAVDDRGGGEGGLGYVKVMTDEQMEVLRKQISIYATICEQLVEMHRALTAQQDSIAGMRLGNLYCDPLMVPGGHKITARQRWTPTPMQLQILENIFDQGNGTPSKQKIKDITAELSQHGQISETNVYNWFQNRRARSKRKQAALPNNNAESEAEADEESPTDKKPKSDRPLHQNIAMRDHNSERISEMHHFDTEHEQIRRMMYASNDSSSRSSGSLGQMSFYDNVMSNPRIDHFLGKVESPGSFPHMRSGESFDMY
# Experiment: protein-binding microarray (RPBM); PBS, 2% BSA, 51.3 ng/ul salmon testes DNA, 50 uM zinc acetate, 200 nM TF, 25 C, 1 h; high values mean tight binding
# Settings: protein: recombinant; tags: N-terminal polyhistidine and DsRed monomer fusion (pET32a); label: CyDye5-dUTP incorporated in the synthesized complementary strand; 3' TTTTT single-stranded linker to array surface; dsDNA, one strand shown
# Method in brief: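 A custom Agilent array was converted to double-stranded form by primer extension with Cy5-dUTP and blocked with 2% BSA. Protein at 200 nM in PBS with 2% BSA, salmon testes DNA and 50 µM zinc acetate was applied for 1 h at 25 °C, followed by washing. The proteins were polyhistidine–DsRed N-terminal fusions of transcription factors, expressed in E. coli BL21-CodonPlus and Ni–NTA-purified. The binding signal is per-feature fluorescence intensity (arbitrary units) from an Axon 4000B scanner.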
row,Sequence,binding signal
1,AAATAAATTTGATCCATTCCATAATAATAAATCTACACATCGGAGTCACCTAGTGCAG,9800 fluorescence intensity (a.u.)
2,TATTAGTTAATTGGTTCACTGACACTATACTAGTAATATTCGGAGTCACCTAGTGCAG,22500 fluorescence intensity (a.u.)
3,ACATCACCAATTATTATAAAGGTTTATTTGGGTCAACGGACGGAGTCACCTAGTGCAG,3660 fluorescence intensity (a.u.)
4,AACATAAATGACAAATTCAAATTGTAAATATTGCACTATTCGGAGTCACCTAGTGCAG,14500 fluorescence intensity (a.u.)
5,ACAAATTAAGATTGATAGAAAATGATGTGATTGATTAAGCCGGAGTCACCTAGTGCAG,42500 fluorescence intensity (a.u.)
6,TGTTACTAATTTATTTGGAGGCTTCATGGTTGACCTATTGCGGAGTCACCTAGTGCAG,3440 fluorescence intensity (a.u.)
7,TATTAATTACAGATTGACAAAACACAAGATTTGCCTGTATCGGAGTCACCTAGTGCAG,61800 fluorescence intensity (a.u.)
8,CCACCGGGAGCCAATCACGCGCGGCCGCGTGTACACACCCCGGAGTCACCTAGTGCAG,5930 fluorescence intensity (a.u.)
9,ACCCATAATCATGTAATATTTTACATGCACCTTAAGCACACGGAGTCACCTAGTGCAG,6080 fluorescence intensity (a.u.)
10,TGAGAACATGATTAATTTGCAAGAGGGAAATACAGTACATCGGAGTCACCTAGTGCAG,8520 fluorescence intensity (a.u.)
11,GGTGAGATTATACCACTTGATAGCACAATTGGAAGGAGCACGGAGTCACCTAGTGCAG,5070 fluorescence intensity (a.u.)
12,ATAATTAATCCATAATTAGCAAAGGTTTGCAGTAGCATCACGGAGTCACCTAGTGCAG,27800 fluorescence intensity (a.u.)
13,ATCGTGACATCAAATCTAGCAATATCCTTCTTGACCAGCACGGAGTCACCTAGTGCAG,3210 fluorescence intensity (a.u.)
14,TTATAATAATTGTATTTCTACCATTTAAATTTTATATAAACGGAGTCACCTAGTGCAG,5030 fluorescence intensity (a.u.)
15,TAGTCTAGATTTAATCTCAATTGCCAATTATGACCTACCGCGGAGTCACCTAGTGCAG,20500 fluorescence intensity (a.u.)
16,ATTAAACAATTAATTTCTCCGATGGTTCCATGTTAGGACGCGGAGTCACCTAGTGCAG,30100 fluorescence intensity (a.u.)
17,TACTAGCTGATTTTGTCATTACCTTTTGGCCGTATTCGCCCGGAGTCACCTAGTGCAG,3810 fluorescence intensity (a.u.)
18,TGCTAATGGACTTATTACTTTTGCTTGCTTTAATTTTGCCCGGAGTCACCTAGTGCAG,14600 fluorescence intensity (a.u.)
19,TCATGTTTATCAATTTATGCGTGATCGAAATCCTGGATGACGGAGTCACCTAGTGCAG,11000 fluorescence intensity (a.u.)
20,CTATATGACTGGTATTGTGGTTCAGAAAGGAAGTTCGGACCGGAGTCACCTAGTGCAG,6220 fluorescence intensity (a.u.)
21,AAGCCTAATTAGTCTATAATTAGCCATAAGTATTACAGTACGGAGTCACCTAGTGCAG,26200 fluorescence intensity (a.u.)

row,Sequence,binding signal
1,ATAATGCGTTGATGTGCAATCAGCGATCTTGTACTTCTTACGGAGTCACCTAGTGCAG,9360 fluorescence intensity (a.u.)
2,ACCAGCAATTAGATTAGAAGTTCAGAACCGGTATCCTAAACGGAGTCACCTAGTGCAG,4970 fluorescence intensity (a.u.)
3,AATAACAGGTTAATTCTAAACGGCATTCGCATCATTGTCTCGGAGTCACCTAGTGCAG,5800 fluorescence intensity (a.u.)
4,TAAAATTAACATGGTATCACCTGTGTGACAATATATATCGCGGAGTCACCTAGTGCAG,18600 fluorescence intensity (a.u.)
5,ACCTTTTCCCATCCCCTTTCCCTCGTTTTCCGCGTGCACGCGGAGTCACCTAGTGCAG,4510 fluorescence intensity (a.u.)
6,ATAGATAAACTAATTTATATATTTATATAGTCTTATAAACCGGAGTCACCTAGTGCAG,7340 fluorescence intensity (a.u.)
7,CATTATTATTTTCTCTGTCAATATTTGATTCTAACCGATCCGGAGTCACCTAGTGCAG,3460 fluorescence intensity (a.u.)
8,CTTCCAACAGATTAATCACCACCAATCGGTGAAAAGAGAACGGAGTCACCTAGTGCAG,5340 fluorescence intensity (a.u.)
9,GCCGTAATTTCACCTTTCGCCACGCCGTACCCACAGCAAGCGGAGTCACCTAGTGCAG,5260 fluorescence intensity (a.u.)
10,TCCGTATAATTTGCATTGAGATCCGAGGTTTAATCTAGATCGGAGTCACCTAGTGCAG,7270 fluorescence intensity (a.u.)
11,AATGTCTAATCAAGTAATCATCATGTGGTCAATTATCACACGGAGTCACCTAGTGCAG,15700 fluorescence intensity (a.u.)
12,ATATATATATATATATATATATATATTTTAGGACTGGCTGCGGAGTCACCTAGTGCAG,22300 fluorescence intensity (a.u.)
13,GCTCCGTCACTGTCAATAATCTGTTTCAAATTCAGTCTAACGGAGTCACCTAGTGCAG,10100 fluorescence intensity (a.u.)
14,TTATTAATTCCATAATCAGAACTTTGATGTGATATAACCTCGGAGTCACCTAGTGCAG,9130 fluorescence intensity (a.u.)
15,TTCCTTTTGATTGTTGAATTATATATGTGCTTCGATACATCGGAGTCACCTAGTGCAG,29500 fluorescence intensity (a.u.)
16,AATAATTGGTATTTGAACGTACCAAATTAATTGAGCAATTCGGAGTCACCTAGTGCAG,33700 fluorescence intensity (a.u.)
17,GGGATTGGCTGGAGGGGTGATGTGAGGGTTTTGGTCGAAGCGGAGTCACCTAGTGCAG,14200 fluorescence intensity (a.u.)
18,CGCGATACGTGATTGAAATCGTCTGATACCTGACAGGTTTCGGAGTCACCTAGTGCAG,42200 fluorescence intensity (a.u.)
19,TACATTTAACAAAACTAATTTAATATTATAAATATTGCTACGGAGTCACCTAGTGCAG,3780 fluorescence intensity (a.u.)
20,TCCTATTATTAGCTTTTAAATTGCTAAGGAGATATAAAAGCGGAGTCACCTAGTGCAG,5940 fluorescence intensity (a.u.)
21,ATTAAATTAACTAGCTCCGACTATTCTAGACACAATTCGACGGAGTCACCTAGTGCAG,19500 fluorescence intensity (a.u.)
